In PubChem BioAssay AID2546 (National Center for Advancing Translational Sciences (NCATS), 2010):
The whole screen tested about 310,000 compounds, of which about 11,000 (3.5%) were called active. This list was built around the results that the source calls inconclusive (neither active nor inactive); the mix of calls is not that of the screen. Calls follow the shape of the dose curve; as a rule, active = well fitted inhibition curve with a large enough effect; inconclusive = small, poorly fitted or top-dose-only effect, or effect the other way; inactive = flat fitted curve, though single readings scatter. No potency is given beside an inconclusive call; the fits are too rough.

Assay: VP16 counterscreen qHTS for inhibitors of ROR gamma transcriptional activity;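 also: Gal4-VP16 expression switched on by copper sulfate through the metallothionein promoter; nearly all actives have a fitted effect of over 50% in size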
Conditions: Drosophila S2 Gal4-VP16 UAS-luciferase, luminescence, 20 h; activity, negative = inhibition: at 53.6 µM (top of the series)
% is scaled to controls: 0 for no effect and ±100 for the full control effect; potency is read from the fitted curve at half-maximal effect; tags tell the direction and shape of the fitted curve.

Which Potency does the source give for `O=C(CC12CC3CC(CC(C3)C1)C2)NC(=S)NCc1ccccc1` here?
Its Potency is active: 1.58 µM.

For `O=S(=O)(c1ccc(Cl)c(NC(=S)Nc2ccccc2N2CCOCC2)c1)N1CCOCC1`, which “activity, negative = inhibition” value is on record?
Its value is inactive: -7.13%.

With `CCOC(=O)c1ccc2c(c1)n(CC)c(/C=C/Nc1ccccc1)[n+]2CC` as the compound, how does the “activity, negative = inhibition” value read?
The value was inactive: -10.9%.

For `CCOc1ccc(N(CC(=O)N2CCOCC2)S(=O)(=O)c2ccc(F)cc2)cc1`, which “activity, negative = inhibition” value is on record?
The value was inactive: -1.1%.

With `CC(C)=CCc1c(O)cc2occ(-c3ccc4c(c3)OCO4)c(=O)c2c1O` as the compound, how does the Potency read?
Its Potency is active: 14.1 µM.

With `COCCn1c(SC(C)C(=O)Nc2ccc(Cl)cn2)nnc1-c1ccncc1` (stereo not drawn) as the compound, how does the “activity, negative = inhibition” value read?
Its value is inactive: -2.57%.

Which “activity, negative = inhibition” value does the source give for `O=C(CSc1nc2ccccc2[nH]1)NCc1ccc2c(c1)OCO2` here?
The value was inactive: -0.285%.

With `C=CCOc1c(Br)cc(/C=N\n2nnnc2N)cc1OC` as the compound, how does the “activity, negative = inhibition” value read?
Its value is inactive: 8.19%.

With `COc1ccc(C(=O)NC(=S)NC(C)(C)C)cc1Br` as the compound, how does the Potency read?
The Potency was active: 7.94 µM.

For `CCCC(=O)NC(=S)Nc1ccc(N2CCOCC2)c(Cl)c1`, which Potency is on record?
The Potency was inconclusive [inhibitor, single point].

With `CCc1ccccc1N1C(=O)CC(Sc2nccc(C)n2)C1=O` (stereo not drawn) as the compound, how does the Potency read?
Its Potency is inconclusive [inhibitor, single point].

With `CN(Cc1nc2ccccc2n1C)S(=O)(=O)c1ccc(Cl)cc1` as the compound, how does the “activity, negative = inhibition” value read?
The value was inactive: 8.69%.

With `CCOC(=S)SCc1cn2ccc(C)cc2n1` as the compound, how does the Potency read?
The Potency was inconclusive [inhibitor, single point].

Which “activity, negative = inhibition” value does the source give for `O=C(O)c1ccccc1-n1c2ccccc2c2ccccc21` here?
Its value is inactive: 7.41%.

For `O=C(CN1CCCC1)Nc1nc(-c2ccc3c(c2)CCN3C(=O)c2ccccc2F)cs1`, which Potency is on record?
Its Potency is inconclusive [activator, partial curve].

For `CN(C)S(=O)(=O)c1cccc(N=C2SCCN2Cc2ccccc2)c1`, which Potency is on record?
The Potency was inconclusive [inhibitor, partial curve, poor fit].

Which “activity, negative = inhibition” value does the source give for `CCOC(=O)C1CCN(Cc2cc(=O)oc3cc(C)c(Cl)cc23)CC1` here?
The value was inactive: 1.48%.

Which Potency does the source give for `O=C(Nc1nccs1)c1ccc(CSc2nnnn2-c2ccccc2)cc1` here?
The Potency was active: 14.1 µM.

Which Potency does the source give for `CCC(=O)Nc1cccc(C(=O)/C=C/c2cccs2)c1` here?
Its Potency is inconclusive [activator, full curve, poor fit].

For `c1ccc(C2CCC3(CC2)Oc2ccccc2C2CC(c4cccnc4)=NN23)cc1` (stereo not drawn), which Potency is on record?
Its Potency is inconclusive [inhibitor, single point].

For `O=c1ccn(C2OC(COP(=O)(O)OC3C(CO)OC(n4ccc(=O)[nH]c4=O)C3O)C(O)C2O)c(=O)[nH]1` (stereo not drawn), which “activity, negative = inhibition” value is on record?
The value was inactive: -0.231%.

With `O=S(=O)(Nc1ccc(Cc2ccncc2)cc1)c1ccc(Cl)c(Cl)c1` as the compound, how does the Potency read?
The Potency was inconclusive [inhibitor, single point].

With `O=C(O)c1cccc(NC2=C(Cl)C(=O)c3ccccc3C2=O)c1` as the compound, how does the Potency read?
Its Potency is inconclusive [inhibitor, single point].

Which Potency does the source give for `COc1cc(OC)c(NS(=O)(=O)c2ccc(Cl)c(C(=O)OC(C)C(=O)N3CCCC3)c2)cc1Cl` (stereo not drawn) here?
Its Potency is inconclusive [inhibitor, single point].

Which Potency does the source give for `O=C(O)CC12CC3CC(C1)CC(n1ncc(NCc4ccccc4Cl)c(Cl)c1=O)(C3)C2` here?
The Potency was inconclusive [inhibitor, single point].

Which Potency does the source give for `O=C(Nc1nccs1)C(NS(=O)(=O)c1ccc(Br)s1)c1ccccc1` (stereo not drawn) here?
The Potency was inconclusive [inhibitor, single point].

With `Cc1nc(C(=O)NNC(=O)c2ccc(Cl)cc2)c(C(F)(F)F)o1` as the compound, how does the Potency read?
Its Potency is inconclusive [inhibitor, single point].

With `CCN(CC(=O)Nc1ccc(NC(C)=O)cc1)C(=O)C1COc2ccccc2O1` (stereo not drawn) as the compound, how does the “activity, negative = inhibition” value read?
Its value is inactive: -5.88%.

For `CCCCC#Cc1cncc(C(=O)NN)c1`, which Potency is on record?
The Potency was active: 7.94 µM.

For `Cc1ccc(C2(c3noc(CN(C)Cc4cccnc4)n3)CCCC2)cc1`, which Potency is on record?
Its Potency is active: 12.6 µM.

With `Cc1cc(N2C(=O)C(O)=C(C(=O)c3cc4ccccc4o3)C2c2ccc(Br)cc2)no1` (stereo not drawn) as the compound, how does the Potency read?
The Potency was inconclusive [inhibitor, single point].

For `CC(NC(=S)Nc1cccc(C(F)(F)F)c1)C(C)(C)C` (stereo not drawn), which Potency is on record?
Its Potency is active: 10 µM.

Which Potency does the source give for `CCCN1CNC(=S)N(c2cccc(C)c2C)C1` here?
The Potency was inconclusive [inhibitor, single point].

For `O=C(N/N=C/c1ccccc1O)c1cccc2ccccc12`, which Potency is on record?
The Potency was active: 0.891 µM.

Which “activity, negative = inhibition” value does the source give for `CCOc1cc2c(cc1C(C)(C)C)NC(=O)CS2` here?
The value was inactive: -11.4%.

With `Cc1ccc(C(=O)NC2CCc3ccccc3C2=O)cc1` (stereo not drawn) as the compound, how does the “activity, negative = inhibition” value read?
The value was inactive: -4.88%.

For `COc1cc2c3nnc(-c4ccc(F)cc4)c-3cn(Cc3ccccc3)c2cc1OC`, which Potency is on record?
The Potency was active: 7.08 µM.

With `CC(C)C[C@H](NC(=O)c1nc[nH]c1C(=O)NCC(=O)OC(C)(C)C)C(=O)OC(C)(C)C` as the compound, how does the Potency read?
Its Potency is inconclusive [inhibitor, single point].

For `CC(C)OC(=O)c1ccc(NC(=S)NC(=O)c2cncc(Br)c2)cc1`, which Potency is on record?
The Potency was active: 2.82 µM.

For `CNC(=S)NCCCc1ccccc1`, which Potency is on record?
Its Potency is inconclusive [inhibitor, single point].

For `N#C/C(=C\c1ccc([N+](=O)[O-])cc1)C(=O)NCCCn1ccnc1`, which Potency is on record?
Its Potency is inconclusive [inhibitor, single point].

For `COc1ccccc1CCNC(=O)C(=O)NCC1OCCN1S(=O)(=O)c1ccc2c(c1)OCCO2` (stereo not drawn), which Potency is on record?
Its Potency is inconclusive [inhibitor, single point].

Which “activity, negative = inhibition” value does the source give for `CCCC/C=C/C(NC(=O)Oc1cccc(C(F)(F)F)c1)c1ccccc1` (stereo not drawn) here?
Its value is inactive: -5.67%.

For `CC1(C)CC(=O)C2=C(C1)OC(N)=C(C#N)C2CCc1ccccc1` (stereo not drawn), which Potency is on record?
The Potency was inconclusive [activator, single point].

With `O=C(O)c1ccc(Cl)c(S(=O)(=O)N2CCCC2)c1` as the compound, how does the “activity, negative = inhibition” value read?
Its value is inactive: 0.894%.

With `COc1ccc(CCNC(=O)Nc2ccccc2[N+](=O)[O-])cc1` as the compound, how does the Potency read?
The Potency was inconclusive [activator, full curve].

Which “activity, negative = inhibition” value does the source give for `O=C(c1cn(-c2ccccc2)nc1-c1cccc(Br)c1)N1CCOCC1` here?
Its value is inactive: -1.7%.

With `NC(=O)c1cc2ccc(O)cc2oc1=Nc1ccccc1` as the compound, how does the Potency read?
Its Potency is inconclusive [inhibitor, partial curve].

With `C=CCNC(=O)NC(=O)COC(=O)/C=C/c1cccc([N+](=O)[O-])c1` as the compound, how does the “activity, negative = inhibition” value read?
Its value is inactive: -4.77%.

Which Potency does the source give for `COC(=O)c1cc(CSc2nnc(NC3CCCCC3)s2)oc1C` here?
Its Potency is inconclusive [inhibitor, single point].

With `CC(C)OC(=O)/C(=C/c1ccc2c(c1)c1ccccc1n2C)NC(=O)c1ccccc1` as the compound, how does the “activity, negative = inhibition” value read?
Its value is inactive: 3.88%.

With `COc1cc(C)nc(NC(=S)N(C)C(=O)c2ccccc2)n1` as the compound, how does the “activity, negative = inhibition” value read?
Its value is inactive: 7.92%.

With `CCOC(=O)CC(=O)CSc1nc(-c2ccc3c(c2)OCO3)cc(C(F)(F)F)c1C#N` as the compound, how does the Potency read?
The Potency was inconclusive [inhibitor, single point].

Which Potency does the source give for `CCOc1ccc(C(=O)C2CCN(CC(=O)Nc3nccs3)CC2)cc1` here?
Its Potency is inconclusive [inhibitor, single point].

With `COCc1cc(=O)n2[nH]cc(-c3ccccc3)c2n1` as the compound, how does the Potency read?
The Potency was active: 10 µM.

Which Potency does the source give for `CC(NC(=S)NC1CCCCC1)C(c1cccs1)N1CCOCC1` (stereo not drawn) here?
Its Potency is inconclusive [inhibitor, single point].

For `COc1ccccc1C(=O)N(CCC1CCCN1C)c1nc2ccccc2s1` (stereo not drawn), which Potency is on record?
Its Potency is inconclusive [inhibitor, single point].

For `Cc1ccc(S(=O)(=O)NCCC(=O)Oc2ccc3ccc(=O)oc3c2)cc1`, which “activity, negative = inhibition” value is on record?
Its value is inactive: -11.9%.

With `CCC(SC1=NCCS1)C(=O)Nc1nnc(-c2ccccc2OC)s1` (stereo not drawn) as the compound, how does the Potency read?
Its Potency is active: 15.8 µM.

Which Potency does the source give for `Cc1cc(C(=O)N/N=C\C(Br)=C\c2ccccc2)c(C)o1` here?
The Potency was inconclusive [inhibitor, full curve].

For `O=S(=O)(Nc1nc2ccc(Cl)cc2s1)c1cccs1`, which Potency is on record?
The Potency was inconclusive [activator, single point].

Which Potency does the source give for `CCCCCCc1cc2cc(S(=O)(=O)c3ccc(Cl)cc3)c(=O)oc2cc1O` here?
Its Potency is active: 20 µM.

With `C=CCSc1nncn1/N=C/c1ccc(OC)cc1` as the compound, how does the Potency read?
Its Potency is inconclusive [inhibitor, single point].

With `CCCCc1ccccc1NC(=S)NC1CCCC1` as the compound, how does the Potency read?
The Potency was active: 4.47 µM.

Which “activity, negative = inhibition” value does the source give for `O=C(O)C1CCCCC1C(=O)Nc1cc(Cl)ccc1Cl` (stereo not drawn) here?
The value was inactive: -0.391%.

Which Potency does the source give for `Cc1cnc(NC(=O)c2ccc(Cl)nc2)s1` here?
The Potency was inconclusive [inhibitor, single point].

Which Potency does the source give for `Cc1ccc(NC(=O)/C(=C/c2ccncc2)NC(=O)c2ccccc2)cc1` here?
The Potency was inconclusive [activator, single point].

For `Fc1ccc(CNC(=S)NC2CCCCCC2)cc1`, which Potency is on record?
The Potency was active: 11.2 µM.

For `O=C(CSc1nc2ccc([N+](=O)[O-])cc2[nH]1)NC1CCCCCC1`, which Potency is on record?
The Potency was inconclusive [inhibitor, single point].

With `COC(=O)C1C(=O)c2c([nH]c(C(=O)OC3CCCCCC3)c2C)CC1C` (stereo not drawn) as the compound, how does the Potency read?
The Potency was inconclusive [activator, full curve, poor fit].

For `O=C(NCCc1ccccn1)c1cc(-c2cccc3ccccc23)nc2ccccc12`, which Potency is on record?
The Potency was inconclusive [inhibitor, single point].

With `Cn1c(N=Nc2ccccc2)nc2ccccc21` as the compound, how does the Potency read?
The Potency was active: 1.26 µM.

For `COC(=O)CN1CC(=O)N(c2ccccc2)C1=S`, which “activity, negative = inhibition” value is on record?
The value was inactive: 0.463%.

Which Potency does the source give for `O=C1C=CCC(/C=C/c2ccccc2)O1` (stereo not drawn) here?
The Potency was inconclusive [inhibitor, single point].

For `O=C(N/N=C/C1CC2C=CC1C2)c1ccccc1O` (stereo not drawn), which Potency is on record?
Its Potency is inconclusive [inhibitor, single point].

With `COc1cc(/C=N/NC(=O)c2csc3c2CCCC3)ccc1OCCN1CCOCC1` as the compound, how does the “activity, negative = inhibition” value read?
Its value is inactive: -24.2%.

Which Potency does the source give for `O=C(Nc1nc2ccccc2n1Cc1ccc(Cl)cc1)c1ccco1` here?
The Potency was active: 2 µM.

With `O=C(CN1C(=O)/C(=C/c2cccc(Cl)c2)SC1=S)NC1C=CS(=O)(=O)C1` (stereo not drawn) as the compound, how does the Potency read?
Its Potency is inconclusive [inhibitor, single point].
